Measurements taken from patent publication US20240317847A1 (Bayer, published 2024).
Numbering of substitutions follows the chain as printed. Numbers in names are those of the source. Where two headings read alike, the source gives them in different places. Blank lines part the entries; values can stand above or below the binder they belong to.

Columns and labels:
[1] = biological target: T1, murine IL-11 (mouse, UniProt P47873 22-199); experiment: SPR, antibody captured, IL-11 as analyte
T1 construct: Invigate, e.g. lot #C210819-09; biotinylated where coated in the ELISA; also called mIL-11; mIL11
T1 sequence: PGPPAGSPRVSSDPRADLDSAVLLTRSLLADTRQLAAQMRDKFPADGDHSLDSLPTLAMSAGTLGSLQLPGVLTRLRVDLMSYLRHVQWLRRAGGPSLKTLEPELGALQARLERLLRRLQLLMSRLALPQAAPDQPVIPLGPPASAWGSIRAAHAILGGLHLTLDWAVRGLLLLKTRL

[2] = biological target: T2, rat IL-11 (rat, UniProt Q99MF5 22-199); experiment: SPR, antibody captured, IL-11 as analyte
T2 construct: Invigate, e.g. lot #C301019-19; also called rIL11
T2 sequence: T1 sequence with S50N, L84F, G94A, V137A, I138V

[3] = biological target: T3, human IL-11 (human, UniProt P20809 22-199); experiment: SPR, antibody captured, IL-11 as analyte
T3 construct: Invigate, e.g. lot #C121021-19; biotinylated where coated in the ELISA; also called hIL-11; hIL11
T3 sequence: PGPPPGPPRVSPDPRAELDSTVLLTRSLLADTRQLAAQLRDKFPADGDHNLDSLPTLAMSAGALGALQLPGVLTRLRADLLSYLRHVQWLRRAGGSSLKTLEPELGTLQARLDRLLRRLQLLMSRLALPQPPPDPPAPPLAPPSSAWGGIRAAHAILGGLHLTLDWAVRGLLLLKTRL

[4] = biological target: T4, cynomolgus IL-11 (cynomolgus, UniProt P20808 22-199); experiment: SPR, antibody captured, IL-11 as analyte
T4 construct: Invigate, lot #C290621-19; also called cIL11; cynoL-11
T4 sequence: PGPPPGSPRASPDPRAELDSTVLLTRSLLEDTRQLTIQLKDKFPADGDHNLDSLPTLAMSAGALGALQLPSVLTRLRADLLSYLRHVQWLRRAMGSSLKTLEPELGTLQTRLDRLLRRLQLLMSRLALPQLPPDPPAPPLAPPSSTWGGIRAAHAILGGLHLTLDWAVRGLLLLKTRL

[5] = biological target: T1, murine IL-11; experiment: cell-based or functional assay
[6] = biological target: T3, human IL-11; experiment: cell-based or functional assay
[7] = biological target: T1, murine IL-11; experiment: SPR 37 C, antibody captured, IL-11 as analyte
Procedure: (§1) To assess the binding kinetics and affinity of anti-IL-11 antibodies as well as their species cross-reactivity profile, binding assays were conducted using surface plasmon resonance (SPR). Binding assays were performed on a Biacore T200 instrument or on a Biacore 8K+ instrument (Cytiva) at 37° C. using assay buffer HBS EP+, 300 mM NaCl, 1 mg/ml BSA, 0.05% NaN3. Antibodies were captured either via anti-human Fc IgGs (“Human antibody capture kit”, Order No. BR100839, Cytiva) or via anti-mouse Fc IgGs (“Mouse antibody capture kit, Order No. BR100383, Cytiva) covalently amine coupled to a Series S CM5 sensor chip (Cytiva) depending on the isotype. The amine coupling was carried out according to the manufacturer's instructions using 1-ethyl-3-(3-dimethylaminopropyl) carbodiimide hydrochloride (EDC), N-hydroxysuccinimide (NHS) and ethanolamine HCl, pH 8.5 (“Amine Coupling Kit” BR-1000-50, Cytiva.). Human, mouse, cynomolgus or rat IL-11 was used as analyte at several dilutions within the concentration range from 0.05-200 nM. For binding assays with only one concentration 200 nM IL-11 was used. The sensor surface was regenerated with glycine pH 1.7 after each antigen injection. Obtained sensorgrams were double referenced (subtraction of reference flow cell signal and buffer injection) and were fitted to a 1:1 Langmuir binding model to derive kinetic data using the Biacore T200 Evaluation software or the Biacore Insight software. If no value is reported, there was either no binding or very low binding and multiphasic binding behavior. Values below 1E-12 were considered to be below the dynamic range of the instrument and set to <1E-12.

[8] = biological target: T2, rat IL-11; experiment: SPR 37 C, antibody captured, IL-11 as analyte
Procedure: as §1

[9] = biological target: T3, human IL-11; experiment: SPR 37 C, antibody captured, IL-11 as analyte
Procedure: as §1

[10] = biological target: T4, cynomolgus IL-11; experiment: SPR 37 C, antibody captured, IL-11 as analyte
Procedure: as §1

[11] = biological target: T1, murine IL-11; experiment: Di-complex ELISA, competitor murine IL11RA-Fc on coated IL-11
[12] = biological target: T3, human IL-11; experiment: as above
[13] = biological target: T1, murine IL-11; experiment: cell-based or functional assay; remark: listed apart in the source
[14] = biological target: T2, rat IL-11; experiment: cell-based or functional assay
[15] = biological target: T3, human IL-11; experiment: cell-based or functional assay; remark: listed apart in the source
[16] = biological target: T4, cynomolgus IL-11; experiment: cell-based or functional assay

B2: TPP-29386 (antibody, human IgG1, lambda)
heavy: EVQLLESGGGLVQPGGSLRLSCAASGFTFSSYGMHWVRQAPGKGLEWVAVISYDGSYKYYADSVKGRFTISRDNSKNTLYLQMNSLRAEDTAVYYCAAGVPDYWGQGTLVTVSS[omitted - human IgG1 constant region]
light: QSVLTQPPSASGTPGQRVTISCSGSSSNIGSDYDVHWYQQLPGTAPKLLIYSNEERPSGVPDRFSGSKSGTSASLAISGLRSEDEADYYCSAWDSSLSGPVFGGGTKLTVLGQPKAAPSVTLFPPSSEELQANKATLVCLISDFYPGAVTVAWKADSSPVKAGVETTTPSKQSNNKYAASSYLSLTPEQWKSHRSYSCQVTHEGSTVEKTVAPTECS
notes: hIgG1, Lambda; VL G32D, N54E, A91S, D95S against TPP-27159
Kd [1]: 0.3 nM
Kd [2]: 0.15 nM
Kd [3]: 0.27 nM
Kd [4]: 0.31 nM
RGA Efficacy (%) [5]: 97.9%
RGA IC50 [5]: 0.12 nM
RGA Efficacy (%) [6]: 88.9%
RGA IC50 [6]: 0.64 nM

B4: TPP-30002 (antibody, human IgG1, lambda)
heavy: QVQLVESGGGVVQPGRSLRLSCAASGFTFSHYDMHWVRQAPGKGLEWVAVISYEGSNKFYADSVKGRFTISRDNSKNTLYLQMNSLRAEDTAVYYCARTPGFHFDYWGQGTLVTVSSASTKGPSVFPLAPSSKSTSGGTAALGCLVKDYFPEPVTVSWNSGALTSGVHTFPAVLQSSGLYSLSSVVTVPSSSLGTQTYICNVNHKPSNTKVDKKVEPKSCDKTHTCPPCPAPPVAGPSVFLFPPKPKDTLMISRTPEVTCVVVGVSHEDPEVKFNWYVDGVEVHNAKTKPREEQYNSTYRVVSVLTVLHQDWLNGKEYKCKVSNKQLPSPIEKTISKAKGQPREPQVYTLPPSRDELTKNQVSLTCLVKGFYPSDIAVEWESNGQPENNYKTTPPVLDSDGSFFLYSKLTVDKSRWQQGNVFSCSVMHEALHNHYTQKSLSLSPGK
light: QSVLTQPPSASGTPGQRVTISCSGSSSNIGSNYVNWYQQLPGTAPKLLIYYDDLRPSGVPDRFSGSKSGTSASLAISGLRSEDEADYYCSAWDDSLSGVVFGGGTKLTVLGQPKAAPSVTLFPPSSEELQANKATLVCLISDFYPGAVTVAWKADSSPVKAGVETTTPSKQSNNKYAASSYLSLTPEQWKSHRSYSCQVTHEGSTVEKTVAPTECS
notes: hIgG1, Lambda (HS variant)
Kd [7]: 0.013 nM
Kd [8]: 0.18 nM
Kd [9]: 0.0074 nM
Kd [10]: 10 nM
Efficacy (%) [11]: -3.3%
Efficacy (%) [12]: 3.5%
RGA Efficacy (%) [13]: 97.2%
RGA Efficacy (%) [14]: 99.1%
RGA IC50 [14]: 1.1 nM
RGA Efficacy (%) [15]: 96.5%
RGA IC50 [15]: 1.2 nM
RGA Efficacy (%) [16]: 72.8%

B5: TPP-30000 (antibody, human IgG1, lambda)
heavy: B4 heavy with E54S, N57V, F102S
light: B4 light
notes: hIgG1, Lambda (HS variant)
Kd [7]: 0.039 nM
Kd [8]: 0.21 nM
Kd [9]: 0.018 nM
Kd [10]: 32 nM
Efficacy (%) [11]: 3.5%
Efficacy (%) [12]: 0%
RGA Efficacy (%) [13]: 97.9%
RGA IC50 [13]: 0.66 nM
RGA Efficacy (%) [14]: 100%
RGA IC50 [14]: 1.4 nM
RGA Efficacy (%) [15]: 97.8%
RGA IC50 [15]: 1.8 nM
RGA Efficacy (%) [16]: 64.6%

Now from value to binder:

Kd [1]: 0.62 nM
Kd [2]: 0.33 nM
Kd [3]: 2.2 nM
Kd [4]: 1.8 nM
RGA Efficacy (%) [5]: 89%
RGA IC50 [5]: 0.24 nM
RGA Efficacy (%) [6]: 50.9%
RGA IC50 [6]: 16 nM
B1: TPP-16478 (antibody, human IgG1, lambda)
heavy: B2 heavy with A49S
light: B2 light with S23T, S31A, D32G, E54N, S91A, S95D, S98N
notes: hIgG1, Lambda

Kd [7]: < 0.001 nM
Kd [8]: 0.009 nM
Kd [9]: 0.0016 nM
Kd [10]: 0.35 nM
Efficacy (%) [11]: 8.6%
Efficacy (%) [12]: 12.2%
RGA Efficacy (%) [13]: 96.2%
RGA IC50 [13]: 0.66 nM
RGA Efficacy (%) [14]: 98.5%
RGA IC50 [14]: 1.1 nM
RGA Efficacy (%) [15]: 98.4%
RGA IC50 [15]: 1.5 nM
RGA Efficacy (%) [16]: 97.5%
RGA IC50 [16]: 0.29 nM
B3: TPP-29680 (antibody, human IgG1, lambda)
heavy: B4 heavy with E54H, N57V
light: B4 light with N35S
notes: hIgG1, Lambda (HS variant)
